Survival data for 88 compounds are collected here from PubChem BioAssay AID463173 (ICCB-Longwood Screening Facility, Harvard Medical School, 2010).

Out of some 52,000 compounds screened, about 1,700 (3.3%) were called active. No stated cut-off is given here; in the data, active means survival mostly below about 52% (no sharp cut-off); inactive means mostly above about 56%. This is one part of the list.

The subject of this experiment is Wild type. The experiment can be described thus: growth inhibition of S. aureus wild type versus tarO mutant, primary screen, teichoic acid synthesis inhibitors, RN4220, OD600 (AID 463173). The note with it: S. aureus RN4220 wild type/DeltatarO growth, OD600, 18 h, hits give low values, screened at 18.75 µg/mL (by protocol).
Turning to `CCOc1ccc(C(=O)NCc2nc3cccnc3n2Cc2ccc(F)cc2)cc1OCC`, the survival was inactive: 53%. Consider `COc1ccc(C2C(C(N)=O)=C(C)Nc3nc(SCc4ccccc4Cl)nn32)cc1OC` (stereo not drawn), for which the survival was inactive: 143%. As for `CCOC(=O)c1ccccc1NC(=O)CSc1nc2ccncc2[nH]1`, the survival was inactive: 73%. For `Cc1ccc(CNC(=O)c2nc(SCc3ccccc3F)ncc2Cl)cc1`, the survival is inactive: 90%. As for `O=C(NCc1ccco1)c1ccc(Cn2c(SCc3ccc(F)cc3)nc3cccnc32)cc1`, the figure is inactive: 101%. As for `Cc1cccc(-c2nnc(SCc3cc(=O)c4cccc(Cl)c4[nH]3)n2C)c1`, the figure is inactive: 72%; as for `COc1cccc2c1ncc1c(-c3ccc(C)cc3)nn(-c3cccc([N+](=O)[O-])c3)c12`, inactive: 79%.

In the case of `Cc1nc2cc(C(=O)O)ccc2n1C`, the survival was inactive: 101%. As for `CCOc1ccc(-n2c(SCC(=O)N3CCc4ccccc43)nc3c([nH]c4ccccc43)c2=O)cc1`, the figure is inactive: 73%; as for `CC(=O)Nc1cc(C(C)C)c(O)c(C(C)C)c1`, inactive: 104%. The figure for `CCOC(=O)CNc1nc(Oc2ccc(=O)n(C)n2)nc(N(CC)CC)n1` is inactive: 71%. As for `CCC(=O)Nc1cc(-c2cccc(C)c2)nn1-c1ccccc1`, the figure is inactive: 73%; as for `COc1ccc(N2CCN(Cc3nc4c(c(=O)[nH]c(=O)n4C)n3Cc3ccc(Cl)cc3)CC2)cc1`, inactive: 118%; as for `Cc1cccc(-c2nc(SCC(=O)N3CCc4ccccc43)c3c(=O)n(C)c(=O)n(C)c3n2)c1`, inactive: 78%. Regarding `Cn1c(SCc2ccccc2)nnc1C1CCCN1CC(=O)N1CCN(c2ccc(F)cc2)CC1` (stereo not drawn), the survival was inactive: 113%. With `COc1ccc(NC(=O)Cn2c(=O)c(-c3cc(C)ccc3NC(C)=O)nc3ccccc32)c(OC)c1`, the survival is inactive: 86%.

For the compound `Cc1cc(C)cc(NC(=O)C(=O)NCC(c2ccc3c(c2)OCO3)N2CCN(C)CC2)c1` (stereo not drawn), the survival is inactive: 88%. As for `CCCN(Cc1cccs1)C(=O)Nc1ccc(OCC)cc1`, the figure is inactive: 82%; as for `Cc1cc(=O)[nH]c2nnc(SCC(=O)Nc3ccc(OC(F)(F)F)cc3)n12`, inactive: 83%; as for `O=C(COc1ccccc1)NCc1ccc2c(c1)CCN2C(=O)c1ccc(Cl)cc1`, inactive: 82%. As for `COc1ccc(NC(=O)N(CCC(C)C)C(C)c2cccs2)c(OC)c1` (stereo not drawn), the figure is inactive: 97%; as for `Cc1ccc(C2CCN(C(=O)c3cnn(-c4cccc(Cl)c4)c3C3CCN(C(=O)OC(C)(C)C)CC3)C2)cc1` (stereo not drawn), inactive: 77%. As for `COc1ccc(OC)c(NC(=O)c2cc(-c3ccc(Cl)s3)nc3ccccc23)c1`, the survival is inactive: 102%. Regarding `COc1ccccc1CNC(=O)CCc1c(C)nn(-c2ccc(N3CCOCC3)nn2)c1C`, the survival was inactive: 74%. The figure for `NCc1nc2cccnc2n1Cc1ccccc1Cl` is inactive: 71%; for `O=C(NCc1ccco1)c1ccc2c(c1)N(Cc1ccccc1)C(=O)c1ccccc1S2(=O)=O` it is inactive: 86%; for `O=C(CSc1nc(O)cc(=O)[nH]1)c1ccc(O)cc1O` it is inactive: 108%. The figure for `COCCNc1ncnc2c1c(-c1ccccc1)cn2-c1ccc(C)c(Cl)c1` is inactive: 71%; for `COc1ccc(NC(=O)CSc2nc3c([nH]c4ccccc43)c(=O)n2-c2ccccc2)c(OC)c1` it is inactive: 73%; for `CCOc1ccc(NC(=O)Cn2c3ncccc3c(=O)n2-c2ccc(CC)cc2)cc1` it is inactive: 80%. Turning to `Cc1ccc(CSc2nnc(-c3ccncc3)n2CC2CCCO2)cc1` (stereo not drawn), the survival was inactive: 97%. As for `COc1ccc(-n2ncc3c(NC(C)(C)CO)ncnc32)cc1`, the figure is inactive: 59%; as for `CC1(C)Cc2ccccc2-c2nc3n(c(=O)c21)CCCS3`, inactive: 112%; as for `Cc1cc(S(=O)(=O)C(CNC(=O)c2ccc(OC(C)C)cc2)c2cccs2)ccc1F` (stereo not drawn), inactive: 74%. The figure for `Cc1nc2cccnc2n1C1CCN(S(C)(=O)=O)CC1` is inactive: 66%; for `CCN(CC)S(=O)(=O)c1ccc(NC(=O)NCc2noc3ccc(C)cc23)cc1` it is inactive: 105%; for `Cc1ccc(CNC(=O)c2oc3c(c2C)-c2nn(Cc4ccc(Cl)cc4)cc2CC3)cc1` it is inactive: 88%.

For `COc1ccc(C(=O)Nc2ccccc2C(=O)NC(C(=O)O)C(C)C)cc1` (stereo not drawn), the survival is inactive: 100%. With `COc1ccc(CCNC(=O)c2ccc(OC)cc2)cc1`, the survival was inactive: 103%. On to `COc1cc2nc(C3CCC3)n(N)c(=O)c2cc1OC`, for which the survival is inactive: 114%. As to `Cc1ccccc1S(=O)Cc1ccc(C(=O)N2CCN(c3cccc(C)c3C)CC2)o1` (stereo not drawn), the survival is inactive: 76%. The figure for `Cc1ccc(-c2c(CN3CCN(c4cccc(C)c4)C(C)C3)csc2C)cc1` (stereo not drawn) is inactive: 90%.

As to `CC(C)CC(=O)N1c2nc(C(C)C)nn2C2(CCCCC2)[C@@H]2CCCC[C@@H]21`, the survival is inactive: 99%.

On to `Cc1ccc2onc(CC(=O)N3CCN(c4ccc(F)cc4)CC3)c2c1`, for which the survival is inactive: 78%. Turning to `COC(=O)c1c(NC(=O)c2cc3ccccc3c(=O)o2)sc2c1CCCC2`, the survival is inactive: 80%. The figure for `Cc1cccc(C)c1OCC(=O)Nc1ncn[nH]1` is inactive: 77%. As for `CCN(CC)CCNC(=O)c1c(C)oc2ncnc(N3CCOCC3)c12`, the figure is inactive: 134%. The figure for `CCOc1ccc(CCNC(=O)c2cnc3sc(N(CC)CC)nn3c2=O)cc1OCC` is inactive: 127%. On to `Cc1c(Cl)cccc1NC(=O)CSc1ncc2c(n1)-c1ccccc1N(C)S2(=O)=O`, for which the survival is inactive: 81%. The figure for `CN(CCCNC(=O)c1cc2c(Cl)nc3ccccc3c2s1)Cc1ccccc1` is inactive: 45%; for `Cc1cc(C)c(NC(=O)Cn2cc(S(=O)(=O)Cc3ccccc3F)c3ccccc32)c(C)c1` it is inactive: 78%. As for `COc1ccc(OC)c(CNS(=O)(=O)c2ccc3c(c2)CCCN3C(C)=O)c1`, the figure is inactive: 75%. The figure for `COc1ccccc1NC(=O)N(Cc1nnc2n1CCCCC2)c1ccc(F)cc1` is inactive: 63%. Consider `CC(=O)c1cccc(NC(=O)C(C)n2c(=O)cc(C)c3c(C)nn(-c4ccccc4)c32)c1` (stereo not drawn), for which the survival was inactive: 85%. As for `COc1ccc(CCNC(=O)c2ccc(Nc3nc4ccccc4n4nnnc34)cc2)cc1OC`, the figure is inactive: 91%. `COc1ccc(NC(=O)Cn2nnc(C(=O)NCCc3ccccc3)c2N)cc1`: the survival is inactive: 81%. As for `Cc1cccc(N(CC(O)Cn2c3ccccc3c3ccccc32)S(=O)(=O)c2ccc(F)cc2)c1` (stereo not drawn), the survival is inactive: 70%. On to `CC(C)c1ccc(NC(=O)c2cc3sc(Cl)cc3n2C)cc1`, for which the survival was inactive: 136%. For the compound `O=C(CN(C(=O)C1CSC(=O)C1)c1ccccc1F)NC1CCCC1` (stereo not drawn), the survival is inactive: 91%. As for `O=C(NCCc1ccccc1)c1ccc2c(c1)N(Cc1ccc(F)cc1)C(=O)c1ccccc1S2(=O)=O`, the figure is inactive: 156%; as for `CC1CCc2c(sc3nc(-c4cc5cc(Br)ccc5oc4=O)[nH]c(=O)c23)C1` (stereo not drawn), inactive: 88%. For the compound `N#CC(C#N)=Cc1cn(Cc2ccccc2)c2ccccc12`, the survival was inactive: 99%. The figure for `O=C(CCS(=O)(=O)c1cccc2nonc12)Nc1c(F)cccc1F` is inactive: 63%. As for `Cc1cc(C)cc(NC(=O)N2CCC3(CC2)Oc2ccccc2C(=O)N3Cc2ccccc2F)c1`, the figure is inactive: 79%; as for `NC(=O)c1ccc(-c2ccccc2)cc1C(N)=O`, inactive: 109%; as for `Cc1cc(N2CC34C=CC(O3)C(C(=O)O)C4C2=O)no1` (stereo not drawn), inactive: 94%. The figure for `CCOC(=O)c1ccc(CN(Cc2ccc(F)cc2)S(=O)(=O)c2ccc(F)c(C(=O)Nc3ccc(Cl)cc3F)c2)cc1` is inactive: 71%; for `CCN(CC)S(=O)(=O)c1ccc(S(=O)(=O)NCc2ccc3c(c2)OCO3)cc1` it is inactive: 108%; for `COc1cccc(N2CCN(C(=O)c3cccc(-n4c(C)nc5cccnc54)c3)CC2)c1` it is inactive: 74%.

With `O=S(=O)(Nc1ccc(Br)cc1F)c1ccc2nc(-c3ccccc3)[nH]c2c1`, the survival was inactive: 71%.

Consider `CCOc1ccc(NC(=O)c2c(NCc3cccnc3)sc3c2CCCC3)cc1`, for which the survival is inactive: 146%. The figure for `COc1ccc(Br)c(C(=O)Nc2cc3c(cc2N2CCOCC2)n(C)c(=O)n3C)c1` is inactive: 79%; for `CCCn1c(-c2ccc(F)cc2)cnc1SCC(=O)N1CCCCC1C` (stereo not drawn) it is inactive: 112%. As to `CCC(C)C(NC(=O)c1cc(C)oc1C)C(=O)O` (stereo not drawn), the survival was inactive: 107%. As for `C=Cc1ccc(Cn2c(C(=O)O)c(CNC3CCCCC3)c3ccc(C)cc32)cc1`, the survival was inactive: 79%.

In the case of `COc1ccc(CCn2c(=O)c3cccnc3n(CC(=O)Nc3ccc(C)c(F)c3)c2=O)cc1OC`, the survival is inactive: 87%. Turning to `COc1ccc(-c2nnc(SCC(=O)Nc3cccc(C(F)(F)F)c3)nc2-c2ccc(OC)cc2)cc1`, the survival was inactive: 79%. On to `CC(C)NC(=O)Cn1cnc2c1c(=O)n(C)c(=O)n2C`, for which the survival was inactive: 100%. The figure for `CCOC(=O)c1[nH]c2c(c1Cc1ccccc1C)C(=O)CC(c1cc(OC)ccc1OC)C2` (stereo not drawn) is inactive: 91%. As for `CC(C)COc1ccc(C(=O)Nc2cc3nn(-c4ccccc4)nc3cc2Cl)cc1`, the figure is inactive: 57%; as for `CCc1nn2c(=O)cc(COc3ccc(/C=C(\C#N)C(=O)Nc4ccc(F)cc4)cc3OC)nc2s1`, inactive: 143%; as for `CCOc1ccc(OCC)c(NC(=O)C2CCN(S(=O)(=O)c3c(C)noc3/C=C/c3ccccc3F)CC2)c1`, inactive: 99%.

Regarding `O=C(COc1ccccc1)NCCc1csc(-c2ccc(Cl)cc2)n1`, the survival was inactive: 71%.

With `COc1cccc(Cn2c(CNS(=O)(=O)c3ccc(F)c(Cl)c3)nc3cccnc32)c1`, the survival is inactive: 159%. Turning to `O=C(c1ccc2c(c1)OCCO2)N(Cc1cccnc1)c1nc2c(Cl)cccc2s1`, the survival is inactive: 128%. As for `O=S(=O)(NCC(c1cccs1)S(=O)(=O)c1ccccc1)c1ccc(F)cc1` (stereo not drawn), the figure is inactive: 64%.

For the compound `Cc1ccccc1-c1nn2c(=O)cc(CN3CCN(C(=O)/C=C/c4ccccc4)CC3)nc2s1`, the survival was inactive: 135%.

`CCc1ccc(NC(=O)Cn2c(=O)n(CCC(=O)N3CCc4ccccc4C3)c(=O)c3ccccc32)cc1`: the survival is inactive: 112%.
